# From the supplement of paper PMC6746778
# Where a name gives a salt, the structure may show the parent alone. Some of the results follow. Single values are uncertain, as repeats are few or missing.
# Key:
# Assay in all cases: proliferation Z-score within cell line (SRB, relative to all inhibitors screened on that line); triple-negative breast cancer lines and a kinase inhibitor library; SRB is the sulforhodamine B protein stain; higher = less growth inhibition (more resistant)
# Conditions in all cases: concentration: 1 µM; 4 days
# [1] = tested on: Bt20
# [2] = tested on: Bt549
# [3] = tested on: HCC1143
# [4] = tested on: HCC1806
# [5] = tested on: HCC1937
# [6] = tested on: HCC38
# [7] = tested on: HCC70
# [8] = tested on: Hs578T
# [9] = tested on: MDA-MB-231
# [10] = tested on: MDA-MB-435s
# [11] = tested on: MDA-MB-436
# [12] = tested on: MDA-MB-453
# [13] = tested on: MDA-MB-468
# [14] = tested on: SKBR7
# [15] = tested on: SUM1315MO2
# [16] = tested on: SUM149PT
# [17] = tested on: SUM159PT
# [18] = tested on: SUM185PE
# [19] = tested on: SUM229PE
# [20] = tested on: SUM52PE
# 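Also: Single-dose primary screen of a 378-member kinase inhibitor library in 96-well plates, with growth read as absorbance of protein-bound SRB dye after TCA fixation.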
Compound,proliferation Z-score within cell line [1],proliferation Z-score within cell line [2],proliferation Z-score within cell line [3],proliferation Z-score within cell line [4],proliferation Z-score within cell line [5],proliferation Z-score within cell line [6],proliferation Z-score within cell line [7],proliferation Z-score within cell line [8],proliferation Z-score within cell line [9],proliferation Z-score within cell line [10],proliferation Z-score within cell line [11],proliferation Z-score within cell line [12],proliferation Z-score within cell line [13],proliferation Z-score within cell line [14],proliferation Z-score within cell line [15],proliferation Z-score within cell line [16],proliferation Z-score within cell line [17],proliferation Z-score within cell line [18],proliferation Z-score within cell line [19],proliferation Z-score within cell line [20]
COc1cc(Nc2ncc(F)c(Nc3ccc4c(n3)NC(=O)C(C)(C)O4)n2)cc(OC)c1OC,0.404,0.645,0.655,0.451,0.375,0.435,0.644,0.303,-0.114,-0.0509,0.84,0.749,0.186,0.585,-1.41,-0.154,0.532,-1.13,0.365,-1.42
NC(=O)c1ncn([C@@H]2O[C@H](CO)[C@@H](O)[C@H]2O)c1N [Acadesine],0.904,0.802,0.783,0.496,0.696,0.586,0.725,0.724,0.7,0.83,0.802,0.852,1.05,0.616,1.8,0.832,0.672,1.33,0.941,1.64
Cc1cc(Nc2cc(CN3CCOCC3)c3nc(C)c(Cc4ccc(Cl)cc4F)n3n2)n[nH]1,0.675,0.571,-0.776,0.533,0.532,0.457,-1.17,0.236,-0.326,-0.45,-0.935,-0.275,-1.27,-0.189,-0.764,0.692,-1.34,-0.553,0.0857,-1.39
COc1cc2nccc(Oc3ccc(NC(=O)C4(C(=O)Nc5ccc(F)cc5)CC4)cc3)c2cc1OC [Cabozantinib malate (XL184)],0.881,0.678,0.512,0.86,0.843,0.538,0.64,0.495,0.476,0.423,0.519,0.848,0.81,0.345,0.335,0.688,0.465,0.243,0.434,-1.69
C=CS(=O)(=O)NC1CCN(C(=O)CNc2cc(I)c(Cl)cc2OC)CC1 [K-Ras(G12C) inhibitor 9],0.222,0.177,0.62,-0.596,0.297,0.275,0.326,0.331,0.622,0.315,-0.87,-0.587,0.233,0.00347,0.137,0.424,0.281,0.269,0.25,0.74
CN(C)CCOc1ccc(-c2nc(-c3ccncc3)c(-c3ccc4c(c3)CC/C4=N\O)[nH]2)cc1,1.62,1.01,0.586,1.39,0.885,0.62,0.827,0.757,0.983,-1.31,1.34,0.803,1.32,0.114,1.42,1.12,0.346,0.886,1.58,-1.06
Cc1nc(N)sc1-c1ccnc(Nc2ccc(N3CCOCC3)cc2)n1,-1.52,0.426,1.43,0.37,1.01,0.438,0.951,0.499,-1.27,-0.724,1.3,-0.251,-1.83,0.221,-1.13,-0.641,0.563,-0.861,-0.391,-0.417
CCCCCCCCc1ccc(CCC(N)(CO)CO)cc1 [Fingolimod (FTY720) HCl],0.824,0.754,0.476,0.534,0.749,0.506,0.57,0.65,0.244,0.841,0.718,0.595,1,0.241,0.797,0.658,0.485,1.09,1.02,0.757
Cc1cc(CN2CCN(c3c(Br)cnc4nc(-c5ccc(N6CCN(C)CC6)cc5)[nH]c34)CC2)no1,-1.08,0.766,0.842,1.02,0.753,0.606,0.814,0.785,-0.415,0.275,0.997,1.12,-1.28,0.849,-0.51,0.498,0.629,-0.279,0.232,-1.16
N#CC1(c2ccc(NC(=O)c3cccnc3NCc3ccncc3)cc2)CCCC1 [Apatinib],0.896,0.751,0.778,0.976,0.806,0.578,0.736,0.63,0.819,0.958,0.795,0.831,0.874,0.501,0.578,0.958,0.179,0.73,1.49,1.06
CCOC(=O)c1cnc2ccc(-c3cncc(NS(=O)(=O)c4ccccc4)c3)cn12,-3.02,-2.43,-2.83,-1.94,-2.92,-2.83,-2.22,-2.88,-2.17,-2.5,-1.67,-1.92,-2.54,-2.16,-2.32,-2.45,-3.54,-1.72,-2.16,-1.67
O=c1cc(-c2cccc3c2Sc2ccccc2S3)oc(N2CCOCC2)c1,1.01,0.619,-2.22,-0.681,-2.6,0.343,-2.17,0.483,0.899,0.577,-2.31,0.109,0.847,-0.515,0.979,0.719,-2.53,0.527,0.221,0.957
NC(=O)Nc1sc(-c2ccc(F)cc2)cc1C(N)=O,0.881,0.569,0.843,0.0104,0.495,0.622,0.589,0.828,0.543,0.237,0.0082,0.886,0.36,0.346,0.342,0.332,0.74,0.979,1.16,1.13
CN1CC[C@@H](c2c(O)cc(O)c3c(=O)cc(-c4ccccc4Cl)oc23)[C@@H]1CO,-2.68,-3.32,-3.76,-1.43,-3.28,-4.91,-3.29,-3.35,-2.53,-2.35,-2.62,-2.21,-2.42,-2.82,-2.3,-1.82,-3.85,-1.41,-2.43,-1.54
C[C@@H]1COC(Nc2ccc3ncnc(Nc4ccc(OCc5nccs5)c(Cl)c4)c3c2)=N1 [Varlitinib],0.611,1,0.728,0.592,0.797,0.715,0.836,0.782,0.86,1.05,1.11,0.976,0.239,1.04,1.07,0.251,0.723,0.858,0.697,1.29
CC(C)(C)NS(=O)(=O)c1cncc(-c2cc(F)c3nc(N)nn3c2)c1,0.77,0.634,0.564,0.759,0.789,0.521,0.541,0.5,0.661,0.913,1.04,0.725,0.854,0.874,1.27,0.876,0.487,1.99,1.05,1.27
O=c1cc(CN2CCOCC2)occ1OCCCCCSc1ccnc2cc(C(F)(F)F)ccc12,-0.99,-1.02,-0.224,-1.49,-1.06,-2.16,-0.447,-1.28,0.674,-0.0717,-0.459,-1.66,-0.339,-1.36,-0.528,-0.0899,-0.314,-0.686,-0.302,-0.348
Cc1cc(N2CCOCC2)cc2[nH]c(-c3c(NCC(O)c4cccc(Cl)c4)cc[nH]c3=O)nc12 (stereo not given),0.443,0.345,-0.187,-0.616,0.411,0.374,0.509,0.301,-0.848,-1.28,0.4,0.684,-0.0956,-0.616,-1.22,-1.61,0.401,-1.11,-1.05,-0.408
Cc1ccc(NC(=O)c2ccc(CN3CCN(C)CC3)cc2)cc1Nc1nc(-c2cccnc2)cs1 [Masitinib (AB1010)],1.02,0.757,-0.0644,0.729,-1.14,0.475,0.665,0.431,0.826,1.14,1.07,0.702,0.969,0.154,0.855,0.901,0.543,1.46,1.31,1.34
CC(C)n1nc(-c2ccc3oc(N)nc3c2)c2c(N)ncnc21,-1.66,-2.09,-2,-1.57,-1.96,-2.25,-1.92,-2.11,-1.48,-1.58,-1.79,-1.54,-1.42,-1.82,-1.49,-1.47,-1.96,-1.45,-1.78,-1.2
Cc1cc(Nc2nc(N[C@@H](C)c3ccc(F)cc3)c(C#N)cc2F)n[nH]1,-2.11,-1.1,0.41,0.332,0.882,-2.2,0.588,-1.74,-1.26,-1.29,0.434,-1.73,-1.77,-2,-1.87,-1.46,0.353,-1.1,-1.27,-1.4
CCc1cncnc1N1CCN(Cc2nc3ccc(C(F)(F)F)cc3[nH]2)CC1,0.44,0.606,-0.723,0.641,-1.72,0.352,-1.99,0.271,0.225,0.796,-1.92,0.672,0.728,0.569,0.938,0.787,-0.969,0.662,0.897,1.21
CC(C)NC[C@@H](C(=O)N1CCN(c2ncnc3c2[C@H](C)C[C@H]3O)CC1)c1ccc(Cl)cc1,-1.22,-0.265,0.691,0.612,-0.852,0.446,-1.48,-0.569,0.914,0.716,-0.0591,-1.27,-0.812,0.803,0.325,-0.804,0.705,-0.883,0.699,-0.318
Oc1ccc(-c2nc(-c3ccc(F)cc3)c(-c3ccncc3)[nH]2)cc1,1.33,0.352,0.926,0.877,0.658,0.552,0.739,0.694,0.67,0.975,0.825,0.697,1.05,0.345,0.946,0.85,0.525,1.08,2.05,1
O=C1NC(=O)C(c2ccccc2[N+](=O)[O-])=C1Nc1ccc(O)c(Cl)c1,0.6,0.658,0.887,0.74,0.711,0.546,0.695,0.623,1.18,0.968,0.717,0.966,1.07,0.646,0.859,0.842,0.618,0.673,0.623,0.826
